{"source": "PubChem BioAssay AID1671193", "about": "(National Center for Advancing Translational Sciences (NCATS), 2021)", "note": "About 180 (0.12%) of roughly 150,000 compounds were called active. The shares of active, inactive and inconclusive entries below differ from those in the screen. The call rests on the fitted dose curve; in most records, active means well fitted cell-killing curve with a large enough effect; inconclusive means small, poorly fitted or top-dose-only effect, or effect the other way; inactive means flat fitted curve, though single readings scatter. Potencies of inconclusive entries are doubtful fits and often do not repeat. Potency means the concentration at half of the fitted maximal effect; tags describe the fitted curve by direction and shape."}
{"experiment": "GF-AFC viability counterscreen for inhibitors of alpha-synuclein gene (SNCA) expression; further: nearly all actives have a fitted effect of over 30% in size;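 on activity change, negative = cytotoxicity: 0% = DMSO-treated cells and -100% = medium-only wells without cells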", "conditions": "HEK-293-SNCA-luc viability, GF-AFC fluorescence, 24 h; activity change, negative = cytotoxicity: at 57.1 µM (top of the series) unless noted", "outline": "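Cytotoxicity counterscreen: after 24 h compound treatment of genome-edited SNCA-luciferase HEK-293 cells, live-cell protease substrate GF-AFC read by fluorescence after 30 min; activity scaled between DMSO (0%) and medium-only (-100%), curves Hill-fitted.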"}
{"smiles": "COCCNC[C@@H]1C=C(C)[C@H](Cc2nnc(-c3ccc(OC)cc3)o2)C[C@H]1C(C)C", "Potency": "active: 31.6 µM"}
{"smiles": "CN1C(=O)CO[C@@H](C(=O)N2CCN(c3ccccc3)CC2)[C@@H]1c1ccccc1", "activity change, negative = cytotoxicity": "inactive: 5.12%"}
{"smiles": "C#CCNC(=O)C1CCCN1c1nc2ncccc2o1", "note": "(centres undefined)", "activity change, negative = cytotoxicity": "inactive: 6.06% [at 87.6 µM]"}
{"smiles": "COc1ccc(C(=O)N2CCOCC3(C2)CN(c2ccccc2)C3)cc1OC", "activity change, negative = cytotoxicity": "inactive: 1.75% [at 87.6 µM]"}
{"smiles": "O=C(NCCc1ccc(Cl)cc1)c1nc(-c2cccc(C(F)(F)F)c2)c2ccccn12", "activity change, negative = cytotoxicity": "inactive: 8.17%"}
{"smiles": "COc1ccc(NC(=O)c2ccco2)cc1NC(=O)c1cccc(C)c1OC", "Potency": "inconclusive: 10 µM [cytotoxic, partial curve]"}
{"smiles": "CCC(C)n1c(=O)c2sccc2n2c(CCCC(=O)Nc3ccc(F)cc3)nnc12", "note": "(centres undefined)", "Potency": "inconclusive: 2.82 µM [cytotoxic, partial curve, poor fit]"}
{"smiles": "CC(=O)N1CCC(N[C@H]2C[C@@H](Cc3cc(CN(C)c4ccccc4)on3)C2(C)C)CC1", "Potency": "inconclusive: 39.8 µM [cytotoxic, single point]"}
{"smiles": "CNC(=O)CCn1ncc2cc(OC3CCc4cccc(-c5ccccc5F)c43)ccc21", "note": "(centres undefined)", "Potency": "inconclusive: 31.6 µM [cytotoxic, partial curve, poor fit]"}
{"smiles": "C[C@@H]1COCCN1c1cc(C2(S(C)(=O)=O)CC2)nc(-c2cccc3[nH]ccc23)n1", "Potency": "inconclusive: 2.12 µM [cytotoxic, full curve, poor fit]"}
{"smiles": "C[C@]1(CO)[C@H]2Cc3sc(NC(=O)c4ccco4)nc3[C@@H](CC(=O)NCCN3CCOCC3)[C@]2(C)CC[C@H]1O", "activity change, negative = cytotoxicity": "inactive: -2.62%"}
{"smiles": "COc1ccc(C(=O)NCC23CCCC=C2NC(=O)CC3)cc1OC", "note": "(centres undefined)", "activity change, negative = cytotoxicity": "inactive: -10.5%"}
{"smiles": "O=C(NCc1cccc(Cl)c1)c1cccn1-c1nnc(N2CCCC2)s1", "Potency": "inconclusive: 14.1 µM [cytotoxic, partial curve, poor fit]"}
{"smiles": "Cc1ccccc1Nc1c(-c2ccsc2)nc2c(C)cccn12", "Potency": "inconclusive: 22.4 µM [cytotoxic, single point]"}
{"smiles": "COCCNC(=O)c1cn2cc(-c3cccc(OC)c3)sc2n1", "activity change, negative = cytotoxicity": "inactive: 7.28% [at 87.6 µM]"}
{"smiles": "CNC(=O)C1CCN(c2nccc(Nc3ccccc3F)n2)CC1", "Potency": "inconclusive: 11.2 µM [cytotoxic, single point]"}
{"smiles": "CCOc1ccc(CC(=O)NCCc2csc3nc(-c4ccccc4F)nn23)cc1", "Potency": "inconclusive: 39.8 µM [cytotoxic, single point]"}
{"smiles": "Cc1ccc(C(=O)N2[C@@H]3CC[C@H]2CC(NC(=O)c2ccncc2)C3)s1", "note": "(some centres undefined)", "Potency": "inconclusive: 5.01 µM [cytotoxic, single point]"}
{"smiles": "Cc1nc(-c2cccc(Cl)c2)n(CC(=O)Nc2cccc(C(C)C)c2)c(=O)c1CCO", "Potency": "inconclusive: 14.1 µM [cytotoxic, partial curve]"}
{"smiles": "O=c1c2cc(-c3cccs3)nn2ccn1CC(O)c1ccccc1", "note": "(centres undefined)", "activity change, negative = cytotoxicity": "inactive: -1.46%"}
{"smiles": "Cc1cc(C)c(CNC(=O)c2cc(-c3ccccc3F)cc3c2OCCN3C(C)C)c(=O)[nH]1", "activity change, negative = cytotoxicity": "inactive: -26.5%"}
{"smiles": "CCOc1ccccc1C(=O)N1CCc2[nH]nc(-c3ccc(F)c(F)c3)c2C1", "Potency": "inconclusive: 25.1 µM [cytotoxic, partial curve, poor fit]"}
{"smiles": "CC1=CC(=O)CC(C)(C)[C@@]1(O)/C=C/C(C)O[C@@H]1O[C@H](CO)[C@@H](O)[C@H](O)[C@H]1O", "note": "(some centres undefined)", "Potency": "inconclusive: 0.0073 µM [cytotoxic, full curve, poor fit]"}
{"smiles": "COc1cc(CNc2nc(-c3c(C)noc3C)cc3cc(C)oc23)cc(OC)c1", "Potency": "inconclusive: 28.2 µM [cytotoxic, partial curve]"}
{"smiles": "CN(C)Cc1nnc(C2CC(NC(=O)c3ccn(C)c(=O)c3)C2)n1C", "note": "(centres undefined)", "activity change, negative = cytotoxicity": "inactive: -2.02%"}
{"smiles": "O=C(c1nc(-c2ccc(Cl)cc2)n2c1CCCCC2)N1CCN(c2ccc(F)cc2)CC1", "Potency": "inconclusive: 39.8 µM [cytotoxic, single point]"}
{"smiles": "CC1CCN(C(c2ccc(F)cc2)c2ccc(C(C)C(=O)O)cc2-c2ccc(C(F)(F)F)cc2)CC1", "note": "(centres undefined)", "Potency": "inconclusive: 26.7 µM [cytotoxic, partial curve, poor fit]"}
{"smiles": "CCC(O)C(=O)N1CCc2onc(-c3ccc(-c4ccccc4)cc3)c2C1", "note": "(centres undefined)", "Potency": "inconclusive: 35.5 µM [cytotoxic, single point]"}
{"smiles": "Cn1cc(CN2CCc3ccccc32)ccc1=O", "Potency": "inconclusive: 3.98 µM [cytotoxic, full curve, poor fit]"}
{"smiles": "CCN(CC)c1ccc2cc(-c3nnc(-c4cccc(Cl)c4)o3)c(=O)oc2c1", "Potency": "inconclusive: 0.891 µM [rising, full curve, poor fit]"}
{"smiles": "CCOc1ccc(NC(=O)CCCN2C(=O)C(c3ccccc3)Oc3cccnc32)cc1", "note": "(centres undefined)", "Potency": "inconclusive: 2.51 µM [rising, full curve, poor fit]"}
{"smiles": "CC(C)(C)c1ccc(-c2cc(C[C@H]3CNCC[C@H]3CC(=O)O)no2)cc1", "activity change, negative = cytotoxicity": "inactive: -7.3% [at 87.6 µM]"}
{"smiles": "CCOC(=O)c1ccc(NC(=O)Cn2c(N3CCC(C)CC3)nc(C)cc2=O)cc1", "activity change, negative = cytotoxicity": "inactive: -13.9%"}
{"smiles": "Cc1ccc(-n2ncc(C(=O)NCc3cccs3)c2C2CCN(C(=O)OC(C)(C)C)CC2)cc1C", "Potency": "inconclusive: 39.8 µM [cytotoxic, single point]"}
{"smiles": "CC(C)Cn1c(=O)c2sccc2n2c(CCCC(=O)Nc3ccc(Cl)cc3)nnc12", "Potency": "inconclusive: 15.8 µM [cytotoxic, partial curve, poor fit]"}
{"smiles": "COc1ccccc1-c1nc(C(=O)NCc2ccc(F)cc2)n2ccncc12", "Potency": "inconclusive: 3.55 µM [rising, full curve, poor fit]"}
{"smiles": "COc1ccc(S(=O)(=O)NC[C@@H]2C=C(C)[C@H](CC(=O)N3CCN(c4ccccn4)CC3)C[C@H]2C(C)C)cc1", "Potency": "inconclusive: 25.1 µM [cytotoxic, partial curve]"}
{"smiles": "Cc1noc(C)c1-c1cc(-c2ccc(CN(C)C)cc2)cn2cncc12", "activity change, negative = cytotoxicity": "inactive: -4.99% [at 87.6 µM]"}
{"smiles": "CC(C)=CCC[C@](C)(O)[C@H]1CC[C@]2(C)[C@@H]1[C@H](O)CC1[C@@]3(C)CC[C@H](O)C(C)(C)C3[C@@H](O[C@@H]3O[C@H](CO)[C@@H](O)[C@H](O)[C@H]3O[C@@H]3OC[C@@H](O)[C@H](O)[C@H]3O)C[C@]12C", "note": "(some centres undefined)", "Potency": "inconclusive: 0.0126 µM [cytotoxic, full curve, poor fit]"}
